# Measurements taken from article PMC12136788.
# This is one part of the list.
# B1: chr19:12875797:12875908:-|3pUTR|ENSG00000105612|unk|total|mutant (ssRNA)
# RNA: GGGAGUUCUACAGUCCGACGAUCUUCGAGACCAGCCUGGGCUACACCGUGAGACCACAUCUCUACCCGAACUUAAAAAAAGUCCGCCAGGCACGGUGAUAAAUGCCUGCCGUCCCAGCCACUGAAGCCAGAGGAUCGAUUGAACAACAGAGGAUUGAGCAUCA
# B2: chr12:1780521:1780622:+|CDS|ENSG00000006831|msi1|FALSE|bound_elsewhere (ssRNA)
# RNA: GGGAGUUCUACAGUCCGACGAUCCCCAAAUAUCUCCUUUGUGGCCCCUCUGCAAGAGAAGGUGGUCUUUGGAUUAUUUUUCUUAGGAGCCAUUCUCUGCCUUUCUUUUUCAUGGCUCUUCCACACAGUCUACUGCCACUCAGACAACAGAGGAUUGAGCAUCA
# B3: chr15:93027272:93027374:+|3pUTR|ENSG00000173575|unk|FALSE|unique (ssRNA)
# RNA: GGGAGUUCUACAGUCCGACGAUCCCAGGAAUCUGUGAGGAUGGUAUUCCCUGGAGUCUGGCUUUGAAAGAUUUCAUUGUUGGUAGAAAUAACAGGUUGAGAAAGAGGGAGUUAGCAUCACCUAAAACCUGCACGUGAACAAGGCAACAGAGGAUUGAGCAUCA
# B4: chr2:74529670:74529771:-|5pUTR|ENSG00000115307|unk|total|mutant (ssRNA)
# RNA: GGGAGUUCUACAGUCCGACGAUCUCUCCGCCGGACGCGAGUUGUGAGACGGCCCAAGGGGCCGCGGGGUAUGCUGGGACCGCCCGCCCUUCCGGCGCGCCUCAGGACUUCGGGUCCCCUCACCCCGGGCGGAUGCCCAAAGACCAACAGAGGAUUGAGCAUCA
# B5: chr1:90030187:90030288:+|3pUTR|ENSG00000162664|unk|total|mutant (ssRNA)
# RNA: GGGAGUUCUACAGUCCGACGAUCACCCAGUUCAAGUCAUGAUAAUUUCUUGUUAACUAAUCUUGAUUCCACCCUUACCAUGACCGAUUCAGUUUUCUACACAAGUAUAAGCUUUUAAAAAUGUAAUUCAGAUGAUGUUAAUCUCAACAGAGGAUUGAGCAUCA
# B6: chr20:3933335:3933436:-|3pUTR|ENSG00000101236|msi1|FALSE|bound_elsewhere (ssRNA)
# RNA: GGGAGUUCUACAGUCCGACGAUCUUACAACACCUGCUAUCAAAUCAUCUAAGCUGAAAACAUGAGAUGCGCUUGGAAAGGCCUAGUCAGAAGCCAUUUCCUCUUAUCAUUUCCCUCUCCUAUGCACCAGUAAGGCCCGUCCAGCAACAGAGGAUUGAGCAUCA
# B7: chr7:99177919:99178066:-|CDS|ENSG00000185467|control|control|control (ssRNA)
# RNA: GGGAGUUCUACAGUCCGACGAUCGAGAAACGGUCUGAGAAGGAAAACCUGUGUCUUCUGAUAGAAGAACUUGGUGGGAUCGAUAGAAUUGAGGCUUUACAGCUGCAUGAGAACCGUCAAAUUGGCCAGUCGGCUUUGAACAUCCAACAGAGGAUUGAGCAUCA
# B8: chr20:31606305:31606406:+|3pUTR|ENSG00000125968|msi1|total|mutant (ssRNA)
# RNA: GGGAGUUCUACAGUCCGACGAUCUGAGGCACUGGCGAGGAGAGGGCGCUCCUCUCUGCACACCUACCCGUCACCAGAGACUUCCGGGGGUGGGAUUCCACUCGUGUGUUUCUAUUUUUUGAAAAGCAGACAUUUUAAAAAAUGCAACAGAGGAUUGAGCAUCA
# B9: chr4:112268257:112268372:+|CDS|ENSG00000138660|unk|FALSE|unique (ssRNA)
# RNA: GGGAGUUCUACAGUCCGACGAUCAGUAAUCCUACAUCAGCCUCUGAUGAUUCCAAUGGGCUGGAGUGGGAAAAUGAUUUUGUUAGUGCCGAAAUGGAUGAUAAUGGAAAUUCCGAGUAUUCUGGAUUUGUAAAUCCUGUAUUACAACAGAGGAUUGAGCAUCA
# B10: chr6:1612588:1612689:+|3pUTR|ENSG00000054598|msi1|FALSE|unique (ssRNA)
# RNA: GGGAGUUCUACAGUCCGACGAUCUUUAUUCAUGGACUUGUUUUAAAAUGUAAAUUGCAACAUAGUAAUUUAUUUUUAAUUUGUAGUUGGAUGUCGUGGACCAAACGCCAGAAAGUGUUCCCAAAACCUGACGUUAAAUUGCCUCAACAGAGGAUUGAGCAUCA
# B11: chr2:130338606:130338707:-|3pUTR|ENSG00000136710|unk|FALSE|unique (ssRNA)
# RNA: GGGAGUUCUACAGUCCGACGAUCUACUCAGCCAAAAGAUCAGGACAAUAUGACUUGAGUCCACAAGGACACAAACACCUGAGUAGCUGGGCAGCCCUUGGCAGGGUCUAAGCCAGGAAGUAAAAAUGAUCUGGCCUAGAUAUUCAACAGAGGAUUGAGCAUCA
# B12: chr16:21983864:21984660:-|three_prime_utr|ENSG00000155714|control|control|control (ssRNA)
# RNA: GGGAGUUCUACAGUCCGACGAUCAAAGAAAAUUGAGCUGGCAAAAGAUGAAUCUUUCACAAGCAGUGAUGAUAAUGAAAAUGUAGAUUUAGAUAAAAGACUUCAAUAUUAUAGAUAUCCGUGGUCAACUGUGCAUCACCCUGCCAACAGAGGAUUGAGCAUCA
# B13: chr5:111496093:111496242:-|3pUTR|ENSG00000164211|unk|FALSE|unique (ssRNA)
# RNA: GGGAGUUCUACAGUCCGACGAUCUUUACAUGUAUAGUUAAAUAUUAAAAUUCAUCUCUUGCAGUUCAAUAAAAGCUAUAGUAUAGAUUUUAUUUUUAAGAAGUUUAUAUAAUUCUUUUGUGAACCAAUAUGUAAAACUAGAAUCAACAGAGGAUUGAGCAUCA
# B14: chr14:95709946:95710881:-|three_prime_utr|ENSG00000100721|control|control|control (ssRNA)
# RNA: GGGAGUUCUACAGUCCGACGAUCUCUGGGAGGAAUGGACAGACAGAGGAUGAGCUCUACCCAGGGCCUGCAGGACCUGCCUGUAGCCCACUCUGCUCGCCUUAGCACUACCACUCCUGCCAAGGAGGAUUCCAUUUGGCAGAGCAACAGAGGAUUGAGCAUCA
# Target: MSI1 full-length (mouse, UniProt Q61474 1-362)
# Chain of UniProt Q61474 (Q61474 whole entry): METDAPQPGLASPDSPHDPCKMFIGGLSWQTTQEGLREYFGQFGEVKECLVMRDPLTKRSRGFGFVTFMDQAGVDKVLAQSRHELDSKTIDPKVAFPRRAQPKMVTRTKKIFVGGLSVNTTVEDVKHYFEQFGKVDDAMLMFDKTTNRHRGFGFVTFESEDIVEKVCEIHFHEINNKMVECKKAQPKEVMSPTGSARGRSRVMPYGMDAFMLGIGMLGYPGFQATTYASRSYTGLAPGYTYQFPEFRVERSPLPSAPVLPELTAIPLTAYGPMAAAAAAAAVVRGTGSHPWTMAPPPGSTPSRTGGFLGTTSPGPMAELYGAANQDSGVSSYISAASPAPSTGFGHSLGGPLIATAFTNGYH
# Assay: nsRBNS (natural sequence RNA bind-n-seq); RBNS binding buffer (assumed for nsRBNS): 25 mM Tris pH 7.5, 150 mM KCl, 3 mM MgCl2, 0.01% Triton X-100, 500 ug/ml BSA, 20 U/ml SUPERase-In, 4 C; UNK is unkempt and MSI1 is Musashi-1; names of the RNAs are library labels; protein concentration not given here; high values mean tight binding
row,Binder,binding signal
1,B1,0.397 enrichment R
2,B2,0.609 enrichment R
3,B3,0.81 enrichment R
4,B4,0.325 enrichment R
5,B5,1.39 enrichment R
6,B6,0.615 enrichment R
7,B7,0.447 enrichment R
8,B8,0.407 enrichment R
9,B9,0.294 enrichment R
10,B10,0.311 enrichment R
11,B11,0.305 enrichment R
12,B12,43.6 enrichment R
13,B13,2.64 enrichment R
14,B14,0.347 enrichment R
